Laboratory results published in the supplement of paper PMC4967469.
The IC50 comes from the fitted curve, where viability falls to half of the control; a fit beyond the top or the lowest dose is shown as a bound at that dose. The AUC spans the tested range (256-fold, ending at the top dose) of the same fit; it is 1 without any effect and falls as sensitivity rises. For some assays here: The top dose, if marked as inferred, was calculated from the reported fits.

Key:
Test in all cases: Viability of human cancer cell lines after 72 h of drug (GDSC screen)
[1] = compound: Cc1cc(C(C)Nc2ccccc2)c2nc(N3CCOCC3)cc(=O)n2c1 [TGX221]; conditions: top dose 10 µM
Procedure: (§1)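 Human cancer cell lines in 384-well plates, medium with 10% serum, drug for 72 h over a 256-fold dose range (nine 2-fold or five 4-fold steps up to the top dose). Adherent lines were fixed and stained with the nucleic acid dye Syto60, suspension lines read with resazurin; signal relative to control wells, capped at 0 and 100%. One two-parameter sigmoid per drug and line, fitted in a mixed model over all curves with the slope shared within a line.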

[2] = compound: CS(=O)(=O)CCNCc1ccc(-c2ccc3ncnc(Nc4ccc(OCc5cccc(F)c5)c(Cl)c4)c3c2)o1 [Lapatinib]; conditions: top dose 2 µM
Procedure: as §1

[3] = compound: CCN(CC)CCCCNc1ncc2cc(-c3cc(OC)cc(OC)c3)c(NC(=O)NC(C)(C)C)nc2n1 [PD-173074]; conditions: top dose 2 µM; top dose inferred
Procedure: as §1

[4] = compound: CN(C)CCOc1ccc(-c2nc(-c3ccncc3)c(-c3ccc4c(c3)CC/C4=N\O)[nH]2)cc1 [SB590885]; conditions: top dose 5 µM; top dose inferred
Procedure: as §1

Q: How did the AUC [1] turn out when “NCI-H1581 (large cell lung carcinoma, semi-adherent)” was run?
A: 0.99

Q: And the IC50 [1]?
A: > 10 µM

Q: And the AUC [2]?
A: 0.99

Q: And the IC50 [2]?
A: > 2 µM

Q: Which results are given for IST-MES1 (mesothelioma, adherent)?
A: AUC [1]: 0.967; IC50 [1]: > 10 µM; AUC [2]: 0.936; IC50 [2]: > 2 µM

Q: Which results are given for no-10 (glioma, adherent)?
A: AUC [1]: 0.752; IC50 [1]: 3.99 µM; AUC [2]: 0.956; IC50 [2]: > 2 µM

Q: What does the source list for TC-YIK (cervix, suspension)?
A: AUC [3]: 0.981; IC50 [3]: > 2 µM; AUC [1]: 0.991; IC50 [1]: > 10 µM; AUC [4]: 0.989; IC50 [4]: > 5 µM

Q: SCC-3 (B-cell lymphoma, suspension) was tested. Which AUC [1] did it give?
A: 0.992

Q: And the IC50 [1]?
A: > 10 µM

Q: And the AUC [2]?
A: 0.991

Q: And the IC50 [2]?
A: > 2 µM

Q: Which results are given for RL95-2 (endometrium, adherent)?
A: AUC [1]: 0.925; IC50 [1]: > 10 µM; AUC [2]: 0.853; IC50 [2]: 1.54 µM

Q: For HCC2218 (breast, suspension), which AUC [3] is on record?
A: 0.975

Q: What about the IC50 [3] of the same cell line?
A: > 2 µM

Q: And the AUC [1]?
A: 0.975

Q: What about the IC50 [1] of the same cell line?
A: > 10 µM

Q: What about the AUC [4] of the same cell line?
A: 0.976

Q: And the IC50 [4]?
A: > 5 µM

Q: For JSC-1 (B-cell lymphoma, suspension), which AUC [3] is on record?
A: 0.981

Q: And the IC50 [3]?
A: > 2 µM

Q: What about the AUC [4] of the same cell line?
A: 0.986

Q: And the IC50 [4]?
A: > 5 µM

Q: And the AUC [2]?
A: 0.987

Q: And the IC50 [2]?
A: > 2 µM

Q: Which AUC [3] does the source give for “NCI-H1417 (small cell lung carcinoma, suspension)” here?
A: 0.964

Q: What about the IC50 [3] of the same cell line?
A: > 2 µM

Q: And the AUC [1]?
A: 0.981

Q: And the IC50 [1]?
A: > 10 µM

Q: With U-87-MG (glioma, adherent) as the cell line, how does the AUC [3] read?
A: 0.985

Q: And the IC50 [3]?
A: > 2 µM

Q: And the AUC [1]?
A: 0.94

Q: What about the IC50 [1] of the same cell line?
A: > 10 µM

Q: What about the AUC [4] of the same cell line?
A: 0.983

Q: What about the IC50 [4] of the same cell line?
A: > 5 µM

Q: Which AUC [1] does the source give for BB65-RCC (kidney, adherent) here?
A: 0.916

Q: And the IC50 [1]?
A: > 10 µM

Q: What about the AUC [2] of the same cell line?
A: 0.937

Q: And the IC50 [2]?
A: > 2 µM

Q: With KP-N-YS (neuroblastoma, adherent) as the cell line, how does the AUC [1] read?
A: 0.981

Q: What about the IC50 [1] of the same cell line?
A: > 10 µM

Q: What about the AUC [2] of the same cell line?
A: 0.953

Q: And the IC50 [2]?
A: > 2 µM

Q: “SIG-M5 (acute myeloid leukaemia, suspension)” was tested. Which AUC [1] did it give?
A: 0.986

Q: What about the IC50 [1] of the same cell line?
A: > 10 µM

Q: And the AUC [2]?
A: 0.994

Q: And the IC50 [2]?
A: > 2 µM

Q: “NCI-H748 (small cell lung carcinoma, suspension)” was tested. Which AUC [1] did it give?
A: 0.981

Q: What about the IC50 [1] of the same cell line?
A: > 10 µM

Q: What about the AUC [2] of the same cell line?
A: 0.972

Q: What about the IC50 [2] of the same cell line?
A: > 2 µM

Q: For BT-474 (breast, adherent), which AUC [3] is on record?
A: 0.985

Q: And the IC50 [3]?
A: > 2 µM

Q: And the AUC [1]?
A: 0.985

Q: And the IC50 [1]?
A: > 10 µM

Q: What about the AUC [4] of the same cell line?
A: 0.986

Q: And the IC50 [4]?
A: > 5 µM

Q: For BC-3 (B-cell lymphoma, suspension), which AUC [1] is on record?
A: 0.939

Q: And the IC50 [1]?
A: > 10 µM

Q: What about the AUC [2] of the same cell line?
A: 0.981

Q: What about the IC50 [2] of the same cell line?
A: > 2 µM

Q: With “NCI-H1975 (lung adenocarcinoma, adherent)” as the cell line, how does the AUC [3] read?
A: 0.98

Q: What about the IC50 [3] of the same cell line?
A: > 2 µM

Q: And the AUC [1]?
A: 0.97

Q: What about the IC50 [1] of the same cell line?
A: > 10 µM

Q: And the AUC [4]?
A: 0.983

Q: And the IC50 [4]?
A: > 5 µM

Q: Which results are given for KALS-1 (glioma, adherent)?
A: AUC [1]: 0.771; IC50 [1]: 5.33 µM; AUC [2]: 0.972; IC50 [2]: > 2 µM

Q: Which AUC [3] does the source give for MFM-223 (breast, adherent) here?
A: 0.631

Q: What about the IC50 [3] of the same cell line?
A: 0.287 µM

Q: And the AUC [1]?
A: 0.989

Q: And the IC50 [1]?
A: > 10 µM

Q: And the AUC [4]?
A: 0.989

Q: And the IC50 [4]?
A: > 5 µM

Q: Which AUC [1] does the source give for SK-N-DZ (neuroblastoma, adherent) here?
A: 0.932

Q: And the IC50 [1]?
A: > 10 µM

Q: And the AUC [2]?
A: 0.978

Q: What about the IC50 [2] of the same cell line?
A: > 2 µM

Q: Which results are given for DU-4475 (breast, suspension)?
A: AUC [3]: 0.992; IC50 [3]: > 2 µM; AUC [1]: 0.988; IC50 [1]: > 10 µM; AUC [4]: 0.622; IC50 [4]: 0.633 µM

Q: For “SU-DHL-1 (anaplastic large cell lymphoma, suspension)”, which AUC [1] is on record?
A: 0.995

Q: What about the IC50 [1] of the same cell line?
A: > 10 µM

Q: And the AUC [2]?
A: 0.997

Q: What about the IC50 [2] of the same cell line?
A: > 2 µM

Q: Which results are given for A498 (kidney, adherent)?
A: AUC [3]: 0.977; IC50 [3]: > 2 µM; AUC [1]: 0.472; IC50 [1]: 0.503 µM; AUC [4]: 0.978; IC50 [4]: > 5 µM

Q: For GAK (melanoma, adherent), which AUC [3] is on record?
A: 0.979

Q: And the IC50 [3]?
A: > 2 µM

Q: And the AUC [1]?
A: 0.897

Q: What about the IC50 [1] of the same cell line?
A: > 10 µM

Q: What about the AUC [4] of the same cell line?
A: 0.989

Q: And the IC50 [4]?
A: > 5 µM

Q: How did the AUC [3] turn out when Calu-6 (lung adenocarcinoma, adherent) was run?
A: 0.984

Q: What about the IC50 [3] of the same cell line?
A: > 2 µM

Q: And the AUC [1]?
A: 0.953

Q: And the IC50 [1]?
A: > 10 µM

Q: What about the AUC [4] of the same cell line?
A: 0.984

Q: What about the IC50 [4] of the same cell line?
A: > 5 µM

Q: Which results are given for EVSA-T (breast, adherent)?
A: AUC [3]: 0.991; IC50 [3]: > 2 µM; AUC [1]: 0.846; IC50 [1]: 5.77 µM; AUC [4]: 0.984; IC50 [4]: > 5 µM

Q: Which results are given for “THP-1 (acute myeloid leukaemia, suspension)”?
A: AUC [3]: 0.991; IC50 [3]: > 2 µM; AUC [1]: 0.985; IC50 [1]: > 10 µM; AUC [4]: 0.991; IC50 [4]: > 5 µM

Q: With MV-4-11 (leukaemia, suspension) as the cell line, how does the AUC [3] read?
A: 0.906

Q: What about the IC50 [3] of the same cell line?
A: 1.86 µM

Q: And the AUC [1]?
A: 0.924

Q: What about the IC50 [1] of the same cell line?
A: > 10 µM

Q: What about the AUC [4] of the same cell line?
A: 0.954

Q: What about the IC50 [4] of the same cell line?
A: > 5 µM

Q: What does the source list for “MOLT-4 (lymphoblastic leukaemia, suspension)”?
A: AUC [3]: 0.914; IC50 [3]: 1.97 µM; AUC [1]: 0.989; IC50 [1]: > 10 µM; AUC [4]: 0.952; IC50 [4]: > 5 µM

Q: With “NCI-H446 (small cell lung carcinoma, semi-adherent)” as the cell line, how does the AUC [3] read?
A: 0.957

Q: And the IC50 [3]?
A: > 2 µM

Q: And the AUC [1]?
A: 0.981

Q: What about the IC50 [1] of the same cell line?
A: > 10 µM

Q: And the AUC [4]?
A: 0.985

Q: And the IC50 [4]?
A: > 5 µM
